Experimental findings from ChEMBL document CHEMBL4888484, “Replenishing the malaria drug discovery pipeline: Screening and hit evaluation of the MMV Hit Generation Library 1 (HGL1) against asexual blood stage Plasmodium falciparum ,using a nano luciferase reporter read-out” (2022) are described below.

About 540 (0.36%) of roughly 150,000 compounds showed an effect of 50% or more. The list shows a part of the results.

The test has as its system Plasmodium falciparum. Put plainly: Primary screen in NF54 nanoGlo assay, in single point, at 2uM, 72h; a lower Z score goes with more inhibition. The note with it: timepoint 72 hour. Type of test: functional, Erythrocyte.
As for `CC(C)N(CCN(C)C)C(=O)c1ccc(CNC(=O)OC(C)(C)C)o1`, the “% Inhibition” value was -8% and the Z score stood at 0.73.
For the compound `COc1ccc(CC(=O)N[C@@H](C)c2csc(C(C)C)n2)cc1OC`, the “% Inhibition” value was -19% and the Z score is given as 1.7.
For the compound `C1=CCN([C@H]2CCN(c3cc(N4CCOCC4)ncn3)C2)C1`, the “% Inhibition” value is given as 10% and the Z score is given as -1.21.
Take `Cc1nc(C)c(Br)c(N2CC[C@@](O)(CN(C)C)C2)n1`: the “% Inhibition” value is listed as -8% and the Z score is 1.29.
Consider `CS(=O)(=O)Cc1noc([C@H]2C[C@@H]2C2CC2)n1`, for which the “% Inhibition” value is given as -3% and the Z score was 0.55.
In the case of `Cc1ccc2[nH]c3c(c2c1)C[C@@H](NS(=O)(=O)C1(C)CC1)CC3`, the “% Inhibition” value is given as 3% and the Z score was -0.34.
As for `Cc1nc2ccccc2n1CCNc1nccnc1C#N`, the “% Inhibition” value is on record as -17% and the Z score is 3.26.
Consider `Cc1nc(C(=O)NCCn2cc(C(=O)N(C)Cc3ccccc3)nn2)cs1`, for which the “% Inhibition” value was -2% and the Z score stood at 0.29.
With `CCOc1ncccc1NC(=O)N(C)[C@@H](C)C(OC)OC`, the “% Inhibition” value is -4% and the Z score is on record as 0.76.
In the case of `CC(=O)c1cc(C(=O)N(C)c2ccc(Br)cc2C)n(C)c1`, the “% Inhibition” value was -9% and the Z score is recorded as 1.04.
For the compound `COc1ccc(F)c(-c2cccnc2O)c1`, the “% Inhibition” value was determined as 2% and the Z score was -0.33.
For the compound `Cc1cc(C(=O)NCCOc2ccccc2)c(C)s1`, the “% Inhibition” value is on record as -17% and the Z score is recorded as 2.3.
Turning to `CC(C)OC(=O)NCCOC(=O)N(O)c1ccc(Cl)cc1`, the “% Inhibition” value is reported as -11% and the Z score came to 2.21.
On to `Cc1noc2nc(CCC(=O)NCc3ccco3)nc(N3CCOCC3)c12`, for which the “% Inhibition” value amounted to 1% and the Z score was -0.13.
Regarding `Cc1nc(C(=O)NC(C)C(C)NC(=O)OC(C)(C)C)c(C)o1` (stereo unspecified), the “% Inhibition” value is -1% and the Z score was 0.13.
For `CC(C)(CO)N1CCN(S(=O)(=O)CCc2ccccc2)CC1`, the “% Inhibition” value was 0% and the Z score was -0.05.
For the compound `O=C1COc2cc(C(=O)N3CCCCC3)ccc2N1`, the “% Inhibition” value was -10% and the Z score is 1.89.
As to `CN(C)C(=O)c1cccnc1O[C@H]1CCN(C(=O)CC2CCCCC2)C1`, the “% Inhibition” value is listed as -5% and the Z score is 0.86.
As for `CC(=O)c1ccc(-c2ccc(C(=O)NCC3(O)CCCCCC3)o2)cc1`, the “% Inhibition” value is -7% and the Z score was found to be 0.95.
As for `O=C(C1CCOCC1)N1CCC[C@H](c2nc(C3CCOCC3)no2)C1`, the “% Inhibition” value worked out at 2% and the Z score is on record as -0.25.
Turning to `O=C(c1ccc(Cl)cc1)N1CCc2[nH]cnc2C1`, the “% Inhibition” value is -13% and the Z score was 1.52.
For `Cc1[nH]c2c(F)cc(F)cc2c1CCNC(=O)[C@@H](C)Cn1cccn1`, the “% Inhibition” value is given as -1% and the Z score was 0.14.
For `Cc1nn(C)cc1C(=O)NCCCN1CCCC1=O`, the “% Inhibition” value is reported as -3% and the Z score was determined as 0.54.
As for `COC(=O)C(NC(=O)C1CCOC1)C(C)C` (stereo unspecified), the “% Inhibition” value is recorded as -10% and the Z score amounted to 1.49.
Taken in the same sequence, the figures for `N#Cc1ccccc1S(=O)(=O)N1CCc2ncncc2C1` were 0% and -0.06.
Taken in the same sequence, the figures for `CN(C)C(=O)CCCNC(=O)Cc1cccnc1` were -10% and 1.02.
As to `CC(C)Cn1ncnc1CN1C[C@H]2CCS(=O)(=O)[C@H]2C1`, the “% Inhibition” value was -5% and the Z score turned out to be 0.69.
As for `COC(=O)CCc1cncc(NC(=O)COc2ccc(C)c(C)c2)c1`, the “% Inhibition” value is -12% and the Z score worked out at 2.07.
Take `CC1=C(C)CN(c2ccc(S(N)(=O)=O)cc2C(F)(F)F)CC1`: the “% Inhibition” value is on record as -5% and the Z score came out at 1.
As for `CCN1CCN(C(=O)c2cccc(Nc3c(Oc4ccc(C)c(C)c4)cnn(-c4cccc(Cl)c4)c3=O)c2)CC1`, the “% Inhibition” value worked out at 0% and the Z score was -0.04.
The corresponding values for `CC[C@@H](C(=O)NC)N(c1ccccc1F)S(C)(=O)=O` are 21% and -2.45.
In the case of `C[C@H]1C(=O)N(CCc2cc3ccccc3s2)C(=O)N1C`, the “% Inhibition” value was 13% and the Z score is -1.3.
`O=C(NCCc1cccs1)c1cccs1`: the “% Inhibition” value stood at 5% and the Z score was -0.72.
Turning to `CN(C(=O)c1c(Cl)cccc1OCC1CC1)C1CS(=O)(=O)C1`, the “% Inhibition” value was 3% and the Z score is listed as -0.4.
As to `COc1cc2c(c(CN3CCC(Cn4ccnn4)CC3)c1)O[C@@H](C)C2`, the “% Inhibition” value was -12% and the Z score worked out at 1.13.
With `Cc1ccc2nsnc2c1S(=O)(=O)N1C[C@H]2CC[C@@H](C1)N(C)C2=O`, the “% Inhibition” value was -4% and the Z score is 0.75.
The corresponding values for `COc1ccc(NC(=O)[C@@H](NC(C)=O)C(=O)NCc2ccccc2OC)cc1` are -10% and 1.25.
Regarding `NC(=O)[C@@H]1C[C@@H](F)CN1c1nc2ccccc2c(=O)[nH]1`, the “% Inhibition” value is given as -8% and the Z score was determined as 0.97.
Regarding `O=C1O[C@H](C(=O)N2CCCC2)Cc2ccccc21`, the “% Inhibition” value is on record as -7% and the Z score was determined as 0.73.
On to `CCN1CCC(CC(=O)NCCCc2nc(C)c(C)s2)CC1`, for which the “% Inhibition” value is -26% and the Z score worked out at 2.64.
`CCCc1sc(N(C(=O)Cc2ccccc2)c2cccc(OC)c2)nc1-c1ccc(OC)cc1`: the “% Inhibition” value is recorded as -13% and the Z score worked out at 1.64.
Take `CC(=O)Nc1cc(NC2CCCC2)ccc1Cl`: the “% Inhibition” value turned out to be 1% and the Z score was -0.06.
As for `Cc1cccc(F)c1NC(=O)NC(C)(C)C(=O)NCC(C)(C)C`, the “% Inhibition” value stood at 7% and the Z score is -1.25.

The % Inhibition is the drop in the measured response relative to a control, in per cent.
